# Results taken from the supplement of paper PMC3724861.
# This is one part of the list.
# Test system: T1, Caupolican (Caup) homeodomain DNA-binding domain
# T1 sequence: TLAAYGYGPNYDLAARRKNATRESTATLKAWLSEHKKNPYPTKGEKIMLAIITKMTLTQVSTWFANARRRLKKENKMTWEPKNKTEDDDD
# Assay: PBM E-score (8-mer, recovered from the published 9-mer minima) (E-score (dimensionless, -0.5 to 0.5)); Drosophila protein; higher = stronger relative binding preference, active = 0.31 or more
# Procedure, shortened: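 Caup's homeodomain DNA-binding domain (residues 214-303) was made by in vitro transcription and translation and applied at 100 nM to custom-designed protein binding microarrays. Each value is an enrichment score that gives relative binding preference for a short DNA word, with higher meaning stronger. The 8-mer values were recovered from published 9-mer scores, each of which was the minimum of its two constituent 8-mer scores. A cutoff of 0.31 marks candidate sites.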
row,Sequence,PBM E-score
1,GGGTAACC,inactive: -0.0785
2,AAATATTC,inactive: 0.139
3,CGAGTAAA,inactive: -0.0202
4,AGGTGTAG,inactive: 0.125
5,CATGCAGA,inactive: 0.143
6,AGCGGCAC,inactive: -0.174
7,CTAGGCTA,inactive: -0.103
8,AATCGTAT,inactive: 0.127
9,GATATTAC,inactive: 0.215
10,AGCGGTGC,inactive: -0.145
11,CGCGTTTC,inactive: -0.0801
12,ACAATTGT,≥ 0.193
13,ACCTATGA,inactive: -0.0172
14,CCCTATCA,inactive: -0.0683
15,AAGCATCT,inactive: 0.0398
16,CGAGCGAC,inactive: -0.083
17,AGTAACCA,inactive: 0.0688
18,AACCACTC,inactive: 0.124
19,GTCAGTAA,inactive: 0.0579
20,AATATCCG,inactive: 0.042
21,AACTAACA,active: ≥ 0.339
22,GTCTACAC,inactive: 0.139
23,CCTACTGC,inactive: -0.0966
24,CATCCCTA,inactive: 0.0158
25,ACCGGAAG,inactive: 0.00591

row,Sequence,PBM E-score
1,AGAGCTAT,inactive: -0.0647
2,AAACTGCA,inactive: -0.06
3,CAGGACGA,inactive: 0.0556
4,AGGTTCCC,inactive: -0.15
5,CGCTCTAG,inactive: -0.12
6,CGCACTAG,inactive: -0.0416
7,CTATCCCC,inactive: -0.175
8,AATTGACC,inactive: 0.00485
9,CAGTATTA,inactive: 0.0707
10,GGGACGCA,inactive: -0.169
11,AACATCCC,inactive: 0.184
12,AACTGGGC,inactive: -0.169
13,AGGGCCGG,inactive: -0.279
14,AACTTTTC,inactive: 0.0404
15,AAGTAGGG,inactive: 0.0412
16,CAACCTAC,inactive: -0.0324
17,AATTCACG,inactive: -0.0221
18,CATGGGCA,inactive: -0.0568
19,GTGCAGCA,inactive: -0.066
20,AATCCAAA,inactive: 0.0835
21,GCCACCTA,inactive: -0.192
22,CCCGTGGC,inactive: -0.321
23,AGGTTACA,inactive: 0.191
24,TAGGACAA,inactive: 0.228
25,GCAAGTGA,inactive: 0.0247

row,Sequence,PBM E-score
1,ACAGAATA,≥ 0.149
2,GAATACAC,inactive: 0.25
3,GCTGTTCA,inactive: 0.164
4,ACATGATA,active: 0.413
5,ACCTCGAA,inactive: -0.0127
6,ACAGGAAA,inactive: 0.19
7,GTCTATCA,inactive: 0.0945
8,CCGGGGAC,inactive: -0.208
9,ATTAGCCA,≥ 0.0405
10,ATTTAAGA,inactive: 0.0381
11,ACGTAGCC,inactive: -0.102
12,ACATTACC,inactive: 0.12
13,ACAGGGCT,inactive: -0.0308
14,CTACGTCC,inactive: -0.022
15,GTACCCCA,inactive: -0.0476
16,CCCCTCAA,inactive: -0.242
17,AAGGTGTG,inactive: 0.0323
18,GGGCTTAC,inactive: -0.119
19,AATTTAAA,inactive: 0.0692
20,AGGTAATG,inactive: 0.0391
21,GCTTGGAA,inactive: -0.0323
22,AAATTTCT,inactive: -0.0395
23,CCTATGCA,inactive: 0.0958
24,ACACTTCG,inactive: 0.0579
25,GGACCTAC,inactive: -0.0116

row,Sequence,PBM E-score
1,CACAGAGG,inactive: -0.06
2,CCTGGCCG,inactive: -0.192
3,CTCGTGAC,inactive: -0.0131
4,ACGACCAA,inactive: 0.0331
5,CATTCTAG,inactive: 0.108
6,GGGCTAAA,inactive: -0.154
7,ATCTCGAG,inactive: -0.0318
8,CGGGTTTA,inactive: -0.0325
9,AGCGGGGA,inactive: -0.159
10,ACACCGCT,inactive: 0.0823
11,CACCTACC,inactive: -0.0826
12,CAGAAAAA,inactive: 0.00797
13,CCAACAGA,inactive: 0.00649
14,CCTACGCG,inactive: -0.0395
15,AGTGCTCG,inactive: 0.0345
16,GCTAGGAA,inactive: -0.134
17,GCCCCATA,inactive: -0.205
18,ACCTTCTA,inactive: 0.0348
19,GGAGGCCA,inactive: -0.293
20,GAGCAATC,inactive: -0.0149
21,AGAGGCAA,inactive: -0.029
22,CAACGGTC,inactive: -0.0524
23,AGAGGCGA,inactive: -0.1
24,ACACGTAC,inactive: 0.307
25,CGTAACAC,inactive: 0.26

row,Sequence,PBM E-score
1,ACAGGCCT,≥ 0.0238
2,GGGTGGTA,inactive: -0.0433
3,CGTTGAAC,inactive: -0.00169
4,AGCGATAA,inactive: -0.0803
5,ACAGAGGT,≥ 0.0767
6,AGCTTCCA,inactive: -0.15
7,CTTAGAGC,inactive: -0.0766
8,GTGAATTA,inactive: 0.062
9,ACCCCCAG,inactive: -0.321
10,CCAACTTC,inactive: -0.115
11,GACCAGTA,inactive: -0.0165
12,ATATGGTG,inactive: 0.0644
13,CTCTGTAA,inactive: 0.12
14,GCTTCCGA,inactive: -0.0431
15,ATCTGCCG,inactive: -0.0474
16,ACAATTTC,inactive: 0.111
17,CCATCCAA,inactive: 0.106
18,CATTCGGA,inactive: 0.0408
19,CGGGGTAA,inactive: -0.137
20,CTGGTAGA,inactive: 0.0426
21,CAAGTAAA,inactive: 0.156
22,CGTTGTTC,inactive: 0.209
23,ACCTGGTC,inactive: -0.0411
24,CGTGCTAC,inactive: -0.118
25,TCTCGCCA,inactive: -0.132

row,Sequence,PBM E-score
1,GACCACGC,inactive: -0.102
2,CCACACGC,inactive: -0.079
3,CCTGAGGC,inactive: -0.258
4,CCAGCCCA,inactive: -0.204
5,AGGGCGAA,inactive: -0.13
6,AAAGCGTG,inactive: 0.0162
7,CAAACGAC,inactive: 0.102
8,GACCGGAA,inactive: -0.0188
9,CATCCATG,inactive: 0.117
10,TGTCGGAA,inactive: 0.245
11,GATCGCCA,inactive: -0.0838
12,AATGTATG,inactive: 0.243
13,ATTTTTTA,≥ 0.103
14,AGCCCGCG,inactive: -0.222
15,CCGAACGA,inactive: 0.0498
16,GGGAAACA,inactive: 0.0916
17,AAATGTCA,inactive: 0.266
18,GAGAGTGA,inactive: -0.0562
19,ACGGAGAG,inactive: -0.149
20,TACTAAAA,inactive: 0.0194
21,TCCTCACA,inactive: 0.00493
22,ACCCGTCT,inactive: -0.0421
23,ATCGTACA,active: 0.349
24,AGGTCTCA,inactive: -0.08
25,AGGAAGAG,inactive: -0.127

row,Sequence,PBM E-score
1,CATCCTAG,inactive: 0.0143
2,ACACTCTA,inactive: 0.0891
3,CGGAATAC,inactive: 0.0594
4,ATGCGCAC,inactive: -0.0396
5,CTTCGACA,inactive: 0.207
6,ACTAGTAG,inactive: 0.219
7,AGAACGAT,inactive: 0.134
8,CTTGAAAC,inactive: 0.0181
9,GCCCGGGC,inactive: -0.292
10,GCGTGTCA,inactive: 0.284
11,ACTCCAGA,inactive: -0.0847
12,CACTCTTA,inactive: 0.0507
13,GACACCTC,inactive: 0.136
14,CCCGCAAG,inactive: -0.183
15,ACACCGCA,inactive: 0.0414
16,AACACCCG,inactive: 0.0438
17,AATTTTTA,inactive: 0.0856
18,AATTAGGA,inactive: 0.0255
19,AAGGATAT,inactive: 0.125
20,GAGTCAAC,inactive: 0.0923
21,AAGAAGGA,inactive: 0.0173
22,TGAGTGCA,inactive: -0.0812
23,GACACCGC,inactive: -0.0458
24,CGTTTTTC,inactive: -0.0114
25,CCGCAGAC,inactive: -0.168

row,Sequence,PBM E-score
1,ATTAAGGG,inactive: -0.0468
2,CCAAGGCG,inactive: -0.153
3,ACAGAGGC,inactive: -0.0573
4,ATAAGTAC,inactive: 0.158
5,CGCGCGCC,inactive: -0.112
6,CAAAACGC,inactive: -0.0204
7,AGATTGAG,inactive: 0.0476
8,GGAAGTGA,inactive: 0.0155
9,CAATCACC,inactive: -0.0198
10,AAGATGAC,inactive: 0.0886
11,CACACGGC,inactive: -0.113
12,AAAGATGA,inactive: 0.107
13,CAGTATAG,inactive: 0.0614
14,ACTAAATC,inactive: 0.0459
15,GCGGGAGA,inactive: -0.199
16,CTGTTAGC,inactive: -0.0813
17,TCATCCAA,inactive: 0.122
18,AATGAACT,inactive: 0.0147
19,GCAATTGA,inactive: 0.012
20,GCCTGCGA,inactive: -0.178
21,CGCTTTAC,inactive: 0.0463
22,GCCAAGGA,inactive: -0.114
23,AACGGGGA,≥ -0.0432
24,CGCGGACA,inactive: 0.0764
25,CGTGTTTA,active: 0.319

row,Sequence,PBM E-score
1,ATGTGCTG,inactive: 0.107
2,AGTACTGC,inactive: -0.00909
3,GTCTGTGA,inactive: 0.106
4,AGGAACCA,inactive: 0.036
5,CAAGAAAG,inactive: 0.0553
6,CTTGTATA,active: 0.353
7,CCACCCCC,inactive: -0.291
8,CCAATCAC,inactive: 0.0106
9,TCCCGGCA,inactive: -0.143
10,TCTAACAA,inactive: 0.177
11,GTTGTGTA,inactive: 0.298
12,GAGTCGTA,inactive: 0.0466
13,ACTGAATC,inactive: 0.0151
14,GGCCCGTA,inactive: -0.0773
15,AATTCTAT,inactive: 0.124
16,CCTTTGCG,inactive: -0.0869
17,AGGAATCA,inactive: 0.0777
18,AGCCCTGA,inactive: -0.125
19,CTGAAATC,inactive: -0.0582
20,CTCTAGGA,inactive: -0.117
21,AAAAAAGG,inactive: -0.0979
22,AATTGTAT,inactive: 0.228
23,CACTTCCC,inactive: -0.138
24,ATTTTGGA,inactive: 0.102
